Assay results: publication PMC4336329 (PLoS ONE, 2015)
The campaign covered roughly 310,000 compounds. About 2,200 (0.71%) showed an effect of 50% or more. The effect is printed as a negative number. This is one part of the list.

Each compound was assayed against human ether-à-go-go-related gene (hERG) potassium channel (human, UniProt Q12809) (assay: primary screen, population patch clamp on CHO cells stably expressing hERG).
Sequence of human ether-à-go-go-related gene (hERG) potassium channel (Q12809 whole entry, looked up): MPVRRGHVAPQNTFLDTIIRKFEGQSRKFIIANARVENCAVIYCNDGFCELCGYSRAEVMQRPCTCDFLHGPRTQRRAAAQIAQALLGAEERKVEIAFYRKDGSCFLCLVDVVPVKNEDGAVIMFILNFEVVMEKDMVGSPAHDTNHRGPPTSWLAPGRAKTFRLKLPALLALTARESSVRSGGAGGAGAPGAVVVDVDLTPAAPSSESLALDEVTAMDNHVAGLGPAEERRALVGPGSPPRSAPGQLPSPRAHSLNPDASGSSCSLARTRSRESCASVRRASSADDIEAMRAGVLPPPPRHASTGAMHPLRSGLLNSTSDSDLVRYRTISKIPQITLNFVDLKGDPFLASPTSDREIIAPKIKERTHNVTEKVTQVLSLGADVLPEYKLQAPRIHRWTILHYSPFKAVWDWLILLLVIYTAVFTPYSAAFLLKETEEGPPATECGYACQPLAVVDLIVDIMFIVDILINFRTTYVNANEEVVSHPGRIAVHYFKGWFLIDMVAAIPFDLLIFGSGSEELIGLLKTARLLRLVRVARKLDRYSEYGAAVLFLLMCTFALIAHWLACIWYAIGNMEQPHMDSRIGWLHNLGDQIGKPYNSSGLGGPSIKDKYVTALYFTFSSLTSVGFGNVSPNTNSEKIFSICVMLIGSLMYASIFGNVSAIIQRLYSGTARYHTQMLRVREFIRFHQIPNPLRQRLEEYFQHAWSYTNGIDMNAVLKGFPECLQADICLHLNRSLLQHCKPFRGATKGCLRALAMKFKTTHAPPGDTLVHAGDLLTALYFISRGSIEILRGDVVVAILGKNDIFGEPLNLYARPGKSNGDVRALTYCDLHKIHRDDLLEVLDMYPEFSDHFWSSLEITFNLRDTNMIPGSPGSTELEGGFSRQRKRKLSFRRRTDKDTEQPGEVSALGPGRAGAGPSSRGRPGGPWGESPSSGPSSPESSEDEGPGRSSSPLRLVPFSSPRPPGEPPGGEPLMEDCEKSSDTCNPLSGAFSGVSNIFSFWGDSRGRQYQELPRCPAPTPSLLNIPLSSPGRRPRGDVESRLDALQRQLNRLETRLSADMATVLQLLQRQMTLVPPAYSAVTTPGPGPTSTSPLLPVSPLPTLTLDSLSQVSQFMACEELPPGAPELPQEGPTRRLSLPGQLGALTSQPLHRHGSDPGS

Row | SMILES | hERG current change (%, negative = inhibition) at 1uM
1 | CN(CC(=O)Nc1n[nH]c(=S)s1)S(=O)(=O)c1cccc2cccnc12 | 13.6%
2 | CCCCC(=O)NC(c1cccs1)c1cc(Cl)c2cccnc2c1O (stereo not shown) | 12.3%
3 | O=C1CC(c2ccccc2Cl)C2=C(COC2=O)N1 (stereo not shown) | -6.13%
4 | CCOC(=O)N1CCN(C(=O)c2ccc(S(=O)(=O)NCc3ccco3)cc2)CC1 | 6.95%
5 | O=C(NC(Cc1ccccc1)C(=O)O)/C(=C\c1ccccc1)NC(=O)c1ccc(Br)o1 (stereo not shown) | 9.56%
6 | CC1CCCCC1NC(=O)COC(=O)c1ccccn1 (stereo not shown) | 3.97%
7 | CN(C(=O)c1ccccc1-c1ccccc1C(=O)O)c1ccccc1 | 4.8%
8 | Cc1cccc(C)c1N(CC(=O)N1CCCC1)S(C)(=O)=O | 16.2%
9 | COc1ccc(C(=O)NNC(=S)NC(=O)c2ccccc2[N+](=O)[O-])cc1 | 13.9%
10 | Clc1ccc(-c2csc(N3CCSCC3)n2)cc1 | -7.65%
11 | COc1ccc(-c2ccc(C#N)c(SCC(=O)NCCc3ccccc3)n2)cc1OC | 8.03%
12 | CCCn1cc(SCC(=O)Nc2ccc3c(c2)OCO3)c2ccccc21 | 6.47%
13 | Cc1nn(C)cc1C(C(=O)NC1CCCCC1)N(CCc1ccccc1)C(=O)c1cnccn1 (stereo not shown) | -13.4%
14 | CCOc1ccc(NC(=O)N[C@@H](CCSC)C(=O)OC)cc1 | 8.43%
15 | CCSc1ccc([C@@H]2[C@@H]3C(=O)N(CC)C(=O)[C@@H]3[C@]3(C(=O)OC)CCCCN23)cc1OC.O=C(O)C(F)(F)F | 10.8%
16 | O=C(Nc1nnc(SCc2ccc(F)cc2)s1)C1CC(=O)N(c2ccc3c(c2)OCCO3)C1 (stereo not shown) | 8.22%
17 | COc1ccccc1N1CCN(C2CCN(C(=O)COc3cccc(C)c3)CC2)CC1.O=C(O)C(=O)O | -26.6%
18 | COc1cc(/C=C2/SC(=S)N(CCC(=O)Nc3ccccc3)C2=O)cc(OC)c1OC | 15.2%
19 | O=C(OC(C(=O)NCc1ccccc1)c1ccccc1F)c1ccco1 (stereo not shown) | 7.23%
20 | Cc1[nH]nc(SCC(=O)NC2CCCCC2)c1[N+](=O)[O-] | 4.56%
21 | COc1ccc(C(C)=O)cc1Cn1cnc2c(cnn2C)c1=O | 11.5%
22 | COc1ccc(C(C)=O)cc1COC(=O)CNC(=O)c1ccc(Cl)cc1 | 12.2%
23 | COc1ccc(NC(=O)NC2(C(=O)N3CCCCCC3)CCCCC2)cc1 | -0.553%
24 | COc1ccc(C)cc1-n1nnnc1SCC(=O)Nc1cccnc1Cl | 2.22%
25 | CCN(CC)S(=O)(=O)c1ccc(C(=O)NCc2nnc(SCC(=O)OC)n2C)cc1 | 0.243%
26 | O=C(CCNS(=O)(=O)c1ccc(Br)s1)N1CCCCC1 | 13.9%
27 | Cc1ccc2c(c1)C(c1ccc(F)cc1)N(C(=O)c1cc3ccccc3oc1=O)CC(=O)N2 (stereo not shown) | -21%
28 | COc1ccccc1-c1nc(SC)n[nH]1 | -5.95%

Row | SMILES | hERG current change (%, negative = inhibition) at 1uM
29 | Cn1c2ccccc2c2c(C(=O)NCc3ccco3)cn(C3CCCCC3)c(=O)c21 | 7.44%
30 | CCc1ccnc(NS(=O)(=O)c2ccc3c(c2)CCO3)c1 | 16.3%
31 | Nc1cc(OC(=O)c2ccc(F)cc2)nn1S(=O)(=O)c1ccc(F)cc1 | 14.6%
32 | Cc1ccc2cccc(OCC(=O)N(C)CC(=O)Nc3ccc(F)cc3)c2n1 | 14.9%
33 | Cc1cc(C)cc(OCC(=O)OCC(=O)NCc2ccco2)c1 | 11.1%
34 | COc1cc(/C=N/NC(=O)c2ccccn2)cc2c1OCO2 | -2.79%
35 | O=C(O)C1=C(OCc2ccccc2)C(=O)NCC1 | 8.12%
36 | O=C(Cn1cnc2c(cnn2-c2ccccc2)c1=O)OCc1ccccc1 | 14%
37 | CN(C)c1ccccc1C(=O)N1CCC(n2nccc2NC(=O)C2CC2)CC1 | 21%
38 | COc1ccccc1CNC(=O)COC(=O)C1CCN(S(=O)(=O)c2ccccc2)CC1 | 12.6%
39 | Cc1ccc(C)c(NC(=O)CN(C)C(=O)c2ccc3c(=O)n4c(nc3c2)CCC4)c1 | -4.72%
40 | COCCN(C(=O)COC(=O)c1cc(C)oc1C)c1c(N)n(Cc2ccccc2)c(=O)[nH]c1=O | 7.59%
41 | Cc1onc(-c2ccccc2)c1C(=O)N/N=C/c1cc2c(cc1Cl)OCO2 | 9.88%
42 | COc1cc(C#N)c(N=C(SCC#N)N2CCOCC2)cc1OC | 10.7%
43 | Clc1ccc(-c2csc(N3CCCCCC3)n2)cc1 | 15.6%
44 | COC(=O)N1C(=O)[C@@](Cc2ccccc2)(c2ccccc2)N1C(=O)OC | 14.6%
45 | COc1cc(OC)c2c(C)cc(=O)oc2c1C(CCN1CCOCC1)c1ccc(N(C)C)cc1 (stereo not shown) | 9.06%
46 | COc1ccc(/C(O)=C2/C(=O)C(=O)N(Cc3cccnc3)C2c2ccccn2)cc1 (stereo not shown) | 9.49%
47 | CSCCC(NC(=O)COc1ccccc1)C(=O)N1CCN(C(C)=O)CC1 (stereo not shown) | 4.74%
48 | CC(C(=O)NCC1CCCCC1)N(C)CC(=O)Nc1ccc(N2CCOCC2)cc1 (stereo not shown) | 13.7%
49 | O=C(OCc1nnc(-c2ccc(Cl)cc2)o1)c1ccc(O)cc1 | 17%
50 | CCOC(=O)COc1ccc2c(c1)c(C(C)=O)c(C)n2Cc1ccccc1 | 0.0721%
51 | Cc1ccsc1CNn1cnnc1SCc1ccccc1F | 8.06%
52 | CN(C)CC#CCC(O)(c1ccccc1)C1CCCC1.Cl (stereo not shown) | -2.68%
53 | COc1ccc(Cc2nnc(NC(=O)c3cc(OC)c(OC)c(OC)c3)s2)cc1OC | 3.54%
54 | COc1ccc(-c2nc(NC(=O)C3CCN(c4nc5ccccc5o4)CC3)sc2C)cc1 | 10%
55 | Cc1ccc(NC(=O)Cn2nc(C)c(S(=O)(=O)N(C)C)c2C)cc1 | 9.63%
